Laboratory results: PubChem BioAssay AID2060893 (Molecular Pharmacology Branch, DTP, NCI, 2025)
A number of entries come with more than one value. This is not the full list of results. The source may hold further records. The records of an entry repeat one measurement (runs, samples, wells, individuals or studies).

Test system: K86415-001-R-J1-PDC complex spheroids, viability
Experiment: Anticancer human tumor K86415-001-R-J1-PDC patient-derived lung adenocarcinoma cell line growth inhibition [RAS]
Settings: for viability, T/C: stronger effect = lower value; for IC50: compound alone
Text: RAS pathway inhibitors in Combinations in Complex Spheroids
A high-throughput screen of multi-cell type tumor spheroids was designed to identify active combinations of RAS pathway inhibitors and targeted small molecules. Complex spheroids include a stromal component modeled by human endothelial cells (HUVEC) and fibroblasts modeled by human mesenchymal stem cells (MSCs). The concentration ranges selected for each drug and investigational agent were based upon clinically achievable concentrations if the clinical Cmax of the agent was known.
Compounds. The drugs and investigational agents: abemaciclib (NSC768073), cobimetinib (NSC768068), divarasib (GDC6063, NSC841802), docetaxel (NSC628503), GDC-1971 (RLY-1971, NSC841576), gemcitabine (NSC613327), inavolisib (NSC800729), ipatasertib (NSC767898), KB-0742 (NSC834161), MRTX-1133 (NSC836407), osimertinib (NSC779217), RMC-4630 (NSC839698), RMC-6236 (NSC851965), RMC-6291 (NSC852671), Ro-3306 (NSC812927), sapanisertib (NSC764658), SN-38 (NSC673596), staurosporine (NSC755774), SY5609 (NSC837396), and tovorafenib (DAY101, NSC766906), were obtained from the National Cancer Institute (NCI) Developmental Therapeutics Program Chemical Repository. The FDA-approved anticancer drug set is available from the NCI Developmental Therapeutics Program. […] The stock solutions were prepared in dimethyl sulfoxide (DMSO, Sigma-Aldrich, St. Louis, MO, cat. D2650) at 800-fold the tested concentration and stored at -70 degrees C prior to their use. All drugs and investigational agents were tested over a range starting from a high concentration at or near the clinical Cmax and decreasing in half-log increments. If the clinical Cmax for an agent had not been determined, the highest concentration tested was 10 microM.
Cell Culture. All cells were maintained in an incubator at 37 degrees C and 5% CO2 with 95% humidity. The PDC lines were cultured according to standard operating procedures established by the NCI PDMR. All PDCs were thawed and cultured in Matrigel-coated flasks prepared with a working solution of 1X Ham's F-12 nutrient mix, without supplementation (Invitrogen, Waltham, MA, cat. 11765054), 100 U/mL penicillin-streptomycin (Invitrogen, cat. 15140122), and 2.5% Matrigel (Corning Inc., Corning, NY, cat. 354248) for the first three passages. […]
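Further: spheroids exposed to agents for seven days before readout.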

**Q.** Which viability, T/C (compound alone 3.16 µM) does the source give for `CC1(O)CCCC1n1c(=O)c(C(F)F)cc2cnc(NC3CCN(S(C)(=O)=O)CC3)nc21` (centres undefined) here?
**A.** The viability, T/C was 75, 86.2, 70.1, 96.9%.

**Q.** How did the IC50 (run of 07/09/2024) turn out when `CCn1c(-c2cc(N3CCN(C)CC3)cnc2C(C)OC)c2c3cc(ccc31)-c1csc(n1)CC(NC(=O)C1CC1C)C(=O)N1CCCC(N1)C(=O)OCC(C)(C)C2` (centres undefined) was run?
**A.** The IC50 was < 0.949 nM, 1.09 nM, 1.12 nM, 0.961 nM.

**Q.** For `CC(C)NCC(C(=O)N1CCN(c2ncnc3c2C(C)CC3O)CC1)c1ccc(Cl)cc1` (centres undefined), which IC50 is on record?
**A.** Its IC50 is 4.03 µM, 4.77 µM, 9.35 µM, > 10 µM.

**Q.** What about the viability, T/C (compound alone 0.1 µM) of the same compound?
**A.** The viability, T/C was 124, 96.8, 110, 104%.
